Laboratory results: the supplement of paper PMC12217912
Some of the results follow. The full chains were built here from the parent and the listed change. Values near 0.05 are background.

B1: TEV protease; numbered along this chain (parent)
chain: MGESLFKGPRDYNPISSSICHLTNESDGHTTSLYGIGFGPFIITNKHLFRRNNGTLVVQSLHGVFKVKDTTTLQQHLVDGRDMIIIRMPKDFPPFPQKLKFREPQREERICLVTTNFQTKSMSSMVSDTSCTFPSGDGIFWKHWIQTKDGQCGSPLVSTRDGFIVGIHSASNFTNTNNYFTSVPKNFMELLTNQEAQQWVSGWRLNADSVLWGGHKVFMVKPEEPFQPVKEATQL

Variants of: B1
Assay: raw area under fraction-flipped curve 0-4 h after induction (AUC4h, not background-subtracted), DNA-recorder readout of cleavage of the substrate (dimensionless); higher = more cleavage of the substrate by the protease variant
Conditions: temperature: 34 °C; time window: 0-4 h after rhamnose induction
Description: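 In vivo DNA recorder in E. coli TOP10(DE3) ΔrhaA at 34 °C. Each TEVp single-site mutant (parent TEVp 0) is paired with a single-site variant of the 7-mer TEVs (canonical ENLYFQ|S). The substrate sits between flexible linkers in a Bxb1-sfGFP-TEVs-SsrA fusion, so cleavage stabilises Bxb1 and speeds flipping of a recombination array, read by NGS. The value is the raw area under the fraction-flipped curve over 0-4 h after rhamnose induction (AUC4h), with ≥20 reads per time point. It is not background-subtracted; inactive controls average about 0.047.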
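Further: Bxb1 expression induced with 0.2% (w/v) L-rhamnose at OD600 near 0.5, cultures sampled hourly, flipped fraction per protease–substrate barcode pair counted by paired-end Illumina sequencing.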

| Variant | area with substrate ENLYAQS | area with substrate ENLYDQS | area with substrate ENLYEQS | area with substrate ENLYHQS | area with substrate ENLYKQS | area with substrate ENLYMQS | area with substrate ENLYPQS | area with substrate ENLYQQS | area with substrate ENLYRQS | area with substrate ENLYSQS | area with substrate ENLYTQS | area with substrate ENLYVQS | area with substrate ENLYWQS | area with substrate ENLYYQS | area with substrate ENLYCQS | area with substrate ENLYIQS | area with substrate ENLYLQS | area with substrate ENLYNQS | area with substrate ENLYGQS |
| --- | --- | --- | --- | --- | --- | --- | --- | --- | --- | --- | --- | --- | --- | --- | --- | --- | --- | --- | --- |
| I19Q | 0.0747 | 0.0517 | 0.0664 | 0.0715 | 0.0571 | 0.0996 | 0.0682 | 0.0311 | 0.0537 | 0.0793 | 0.0791 | 0.119 | 0.0599 | 0.0665 | – | – | – | – | – |
| F218G | 0.0663 | 0.0659 | 0.0639 | 0.061 | – | – | – | – | 0.0639 | 0.0581 | 0.0617 | 0.0818 | – | – | 0.0608 | 0.0653 | 0.0538 | 0.0535 | – |
| T71F | 0.058 | 0.051 | 0.0635 | 0.0659 | 0.0532 | 0.0571 | 0.0643 | 0.0555 | 0.0599 | 0.0669 | – | – | 0.0779 | 0.06 | – | 0.0879 | 0.0794 | 0.0633 | 0.0798 |
| L191T | 0.0581 | 0.0604 | 0.0632 | 0.0637 | 0.0597 | 0.0516 | 0.0726 | 0.0782 | 0.06 | 0.0773 | 0.076 | 0.0957 | 0.0766 | 0.0604 | – | 0.0533 | 0.0599 | 0.0691 | 0.0553 |
| M125L | 0.0703 | 0.0541 | 0.0606 | 0.0487 | 0.0626 | 0.101 | 0.0722 | – | 0.0684 | 0.0695 | 0.0752 | 0.109 | 0.0884 | 0.0772 | – | – | – | 0.0595 | 0.0456 |
| M188T | 0.0613 | – | – | 0.0714 | 0.0595 | 0.102 | 0.0708 | 0.0663 | 0.0665 | 0.0656 | – | 0.139 | 0.097 | 0.0738 | – | – | – | 0.0784 | 0.0695 |
| G39K | 0.0455 | 0.0404 | 0.0235 | 0.0548 | 0.0506 | 0.058 | 0.0574 | 0.0419 | 0.0497 | 0.0255 | 0.0377 | 0.0509 | 0.0269 | – | 0.0499 | 0.0383 | 0.0366 | 0.0461 | 0.044 |
| P155F | 0.0665 | 0.0674 | 0.0558 | 0.0668 | 0.051 | 0.0485 | 0.0542 | 0.0679 | 0.0557 | 0.0095 | – | 0.0548 | 0.049 | – | – | 0.0484 | 0.0572 | 0.0585 | 0.0502 |
| M122Y | 0.0921 | 0.0646 | 0.0675 | 0.0731 | 0.0579 | 0.0782 | 0.0637 | 0.0533 | 0.0698 | – | 0.0817 | 0.131 | 0.0773 | – | – | 0.148 | 0.0716 | 0.0664 | – |
| M122K | 0.0629 | 0.0479 | – | 0.0789 | 0.0575 | 0.0804 | 0.0654 | 0.0637 | 0.0618 | – | – | – | 0.0921 | 0.0583 | – | 0.138 | – | 0.0618 | 0.053 |
| E3G | 0.0436 | 0.0566 | 0.0653 | 0.0598 | – | 0.059 | 0.0706 | 0.0508 | 0.0471 | – | – | 0.057 | 0.0709 | – | – | 0.0411 | 0.0508 | 0.0386 | 0.0647 |
| P225T | 0.0951 | 0.0659 | 0.0729 | 0.0584 | 0.0394 | – | 0.0765 | 0.057 | 0.0638 | 0.0746 | – | 0.107 | 0.0704 | 0.0363 | 0.0903 | – | – | 0.0649 | 0.0766 |
